# According to the supplement of paper PMC8728848:
# The other results are listed elsewhere or left out.
# Tests used:
# Experiment in all cases: glycan array binding signal (z-score within array); higher = stronger binding
# Details in all cases: glycan notation: IUPAC condensed, linker removed
# [1] = target: Gal(b1-4)GlcNAc(b1-3)Gal(b1-4)Glc
# Summary of the method: (§1)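 Glycan array data came from 3228 arrays in the Consortium for Functional Glycomics database, and only arrays with an available protein sequence were kept. Glycan names were put into IUPAC-condensed notation, and columns mapping to the same glycan were averaged. The binding signal is a within-array Z-score, averaged across arrays of one protein sequence run at different concentrations or buffers and across linkers. A negative Z-score can be read as non-binding.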
# [2] = target: Gal(b1-4)GlcNAc(b1-3)Gal(b1-4)GlcNAc
# Summary of the method: as §1
# [3] = target: Gal(b1-4)GlcNAc(b1-3)Gal(b1-4)GlcNAc(b1-3)Gal(b1-4)GlcNAc
# Summary of the method: as §1
# [4] = target: Gal(b1-4)GlcNAc(b1-3)Gal(b1-4)[Fuc(a1-3)GlcNAc(b1-6)]Gal(b1-4)Glc
# Summary of the method: as §1
# [5] = target: Gal(b1-4)GlcNAc(b1-3)Gal(b1-4)[Fuc(a1-3)]GlcNAc(b1-3)Gal(b1-4)[Fuc(a1-3)]GlcNAc
# Summary of the method: as §1
# [6] = target: Gal(b1-4)GlcNAc(b1-3)GalNAc
# Summary of the method: as §1
# [7] = target: Gal(b1-4)GlcNAc(b1-3)[Gal(b1-4)GlcNAc(b1-6)]Gal(b1-4)GlcNAc
# Summary of the method: as §1
# [8] = target: Gal(b1-4)GlcNAc(b1-3)[Gal(b1-4)GlcNAc(b1-6)]GalNAc
# Summary of the method: as §1
# [9] = target: Gal(b1-4)GlcNAc(b1-3)[GlcNAc(b1-6)]Gal(b1-4)GlcNAc
# Summary of the method: as §1
# [10] = target: Gal(b1-4)GlcNAc(b1-6)Gal(b1-4)GlcNAc
# Summary of the method: as §1
# [11] = target: Gal(b1-4)GlcNAc(b1-6)GalNAc
# Summary of the method: as §1
# [12] = target: Gal(b1-4)GlcNAc(b1-6)[Gal(b1-3)]GalNAc
# Summary of the method: as §1
# Gal(b1-6)Gal = target: Gal(b1-6)Gal
# Summary of the method: as §1
# Gal3S(b1-3)GalNAc = target: Gal3S(b1-3)GalNAc
# Summary of the method: as §1
# Gal3S(b1-3)GlcNAc = target: Gal3S(b1-3)GlcNAc
# Summary of the method: as §1
# [13] = target: Gal3S(b1-3)[Fuc(a1-4)]GlcNAc
# Summary of the method: as §1
# Gal3S(b1-4)Glc = target: Gal3S(b1-4)Glc
# Summary of the method: as §1
# Gal3S(b1-4)Glc6S = target: Gal3S(b1-4)Glc6S
# Summary of the method: as §1
# Gal3S(b1-4)GlcNAc = target: Gal3S(b1-4)GlcNAc
# Summary of the method: as §1
# Gal3S(b1-4)GlcNAc6S = target: Gal3S(b1-4)GlcNAc6S
# Summary of the method: as §1
# [14] = target: Gal3S(b1-4)[Fuc(a1-3)]Glc
# Summary of the method: as §1
# [15] = target: Gal3S(b1-4)[Fuc(a1-3)]Glc6S
# Summary of the method: as §1
# Gal3S4S(b1-4)GlcNAc = target: Gal3S4S(b1-4)GlcNAc
# Summary of the method: as §1
# Gal3S6S(b1-4)GlcNAc = target: Gal3S6S(b1-4)GlcNAc
# Summary of the method: as §1
# Gal3S6S(b1-4)GlcNAc6S = target: Gal3S6S(b1-4)GlcNAc6S
# Summary of the method: as §1
# Gal4S(b1-4)GlcNAc = target: Gal4S(b1-4)GlcNAc
# Summary of the method: as §1
# Gal4S6S(b1-4)GlcNAc = target: Gal4S6S(b1-4)GlcNAc
# Summary of the method: as §1
# Gal6S(b1-3)GlcNAc = target: Gal6S(b1-3)GlcNAc
# Summary of the method: as §1
# Gal6S(b1-3)GlcNAc6S = target: Gal6S(b1-3)GlcNAc6S
# Summary of the method: as §1
# Gal6S(b1-4)Glc = target: Gal6S(b1-4)Glc
# Summary of the method: as §1
# Gal6S(b1-4)Glc6S = target: Gal6S(b1-4)Glc6S
# Summary of the method: as §1
# Gal6S(b1-4)GlcNAc = target: Gal6S(b1-4)GlcNAc
# Summary of the method: as §1
# Gal6S(b1-4)GlcNAc6S = target: Gal6S(b1-4)GlcNAc6S
# Summary of the method: as §1
# GalNAc(a1-3)Gal = target: GalNAc(a1-3)Gal
# Summary of the method: as §1
# GalNAc(a1-3)GalNAc = target: GalNAc(a1-3)GalNAc
# Summary of the method: as §1
# [16] = target: GalNAc(a1-3)GalNAc(b1-3)Gal(a1-4)Gal(b1-4)Glc
# Summary of the method: as §1
# [17] = target: GalNAc(a1-3)GalNAc(b1-3)Gal(a1-4)Gal(b1-4)GlcNAc
# Summary of the method: as §1
# GalNAc(b1-3)Gal = target: GalNAc(b1-3)Gal
# Summary of the method: as §1
# [18] = target: GalNAc(b1-3)Gal(a1-4)Gal(b1-4)GlcNAc
# Summary of the method: as §1
# [19] = target: GalNAc(b1-3)Gal(a1-4)Gal(b1-4)GlcNAc(b1-3)Gal(b1-4)Glc
# Summary of the method: as §1
# [20] = target: GalNAc(b1-3)Gal(a1-6)Gal(b1-4)Glc
# Summary of the method: as §1
# GalNAc(b1-3)GalNAc = target: GalNAc(b1-3)GalNAc
# Summary of the method: as §1
# GalNAc(b1-4)Gal(b1-4)Glc = target: GalNAc(b1-4)Gal(b1-4)Glc
# Summary of the method: as §1
# GalNAc(b1-4)GlcNAc = target: GalNAc(b1-4)GlcNAc
# Summary of the method: as §1
# [21] = target: GalNAc(b1-4)GlcNAc(b1-2)Man(a1-3)[GalNAc(b1-4)GlcNAc(b1-2)Man(a1-6)]Man(b1-4)GlcNAc(b1-4)GlcNAc
# Summary of the method: as §1
binder,measurement,setting,value
Gal 9 (Canis lupus) (protein) MAFSSSQPPYLSPGVPFSGKIQGGLQDGLKITINGTILYCNGTRFAVNFHSGHSDSDIAFHFNPRFEEGGYVVCNTKQKGSWGSEERKMQMPFQMGNPFELCFMVNSCDFKVTVNGSHFTQYSHRVPFHYVDTLSITGAVQLSYISFQSPGVWQSSSAPITQTVIHTVQTTPGQPFPNPIIPPTAYPTPTYPMPFFTSIPGGLYPSKSIIVSGTVLPGAKRFHINLRSGNDIAFHLNPRFNENTVVRNMQINNSWGSEERSLPRKMPFVQGQSFSVWIMCEGHCFKVAVDGEHLFEYYHRLKNLLAINNMEVAGDVQLTHVQT,glycan array binding signal (z-score),[1],0.099
same,glycan array binding signal (z-score),[2],0.265
same,glycan array binding signal (z-score),[3],0.513
same,glycan array binding signal (z-score),[4],-0.123
same,glycan array binding signal (z-score),[5],0.213
same,glycan array binding signal (z-score),[6],0.001
same,glycan array binding signal (z-score),[7],0.39
same,glycan array binding signal (z-score),[8],0.018
same,glycan array binding signal (z-score),[9],0.222
same,glycan array binding signal (z-score),[10],0.154
same,glycan array binding signal (z-score),[11],-0.121
same,glycan array binding signal (z-score),[12],0.157
same,glycan array binding signal (z-score),Gal(b1-6)Gal,-0.357
same,glycan array binding signal (z-score),Gal3S(b1-3)GalNAc,5.93
same,glycan array binding signal (z-score),Gal3S(b1-3)GlcNAc,0.396
same,glycan array binding signal (z-score),[13],-0.331
same,glycan array binding signal (z-score),Gal3S(b1-4)Glc,1.28
same,glycan array binding signal (z-score),Gal3S(b1-4)Glc6S,3.83
same,glycan array binding signal (z-score),Gal3S(b1-4)GlcNAc,0.222
same,glycan array binding signal (z-score),Gal3S(b1-4)GlcNAc6S,1.21
same,glycan array binding signal (z-score),[14],-0.311
same,glycan array binding signal (z-score),[15],-0.295
same,glycan array binding signal (z-score),Gal3S4S(b1-4)GlcNAc,-0.342
same,glycan array binding signal (z-score),Gal3S6S(b1-4)GlcNAc,-0.352
same,glycan array binding signal (z-score),Gal3S6S(b1-4)GlcNAc6S,-0.308
same,glycan array binding signal (z-score),Gal4S(b1-4)GlcNAc,-0.337
same,glycan array binding signal (z-score),Gal4S6S(b1-4)GlcNAc,-0.339
same,glycan array binding signal (z-score),Gal6S(b1-3)GlcNAc,-0.359
same,glycan array binding signal (z-score),Gal6S(b1-3)GlcNAc6S,-0.32
same,glycan array binding signal (z-score),Gal6S(b1-4)Glc,-0.336
same,glycan array binding signal (z-score),Gal6S(b1-4)Glc6S,-0.339
same,glycan array binding signal (z-score),Gal6S(b1-4)GlcNAc,-0.331
same,glycan array binding signal (z-score),Gal6S(b1-4)GlcNAc6S,-0.337
same,glycan array binding signal (z-score),GalNAc(a1-3)Gal,-0.328
same,glycan array binding signal (z-score),GalNAc(a1-3)GalNAc,-0.333
same,glycan array binding signal (z-score),[16],2.63
same,glycan array binding signal (z-score),[17],3.04
same,glycan array binding signal (z-score),GalNAc(b1-3)Gal,0.389
same,glycan array binding signal (z-score),[18],-0.027
same,glycan array binding signal (z-score),[19],0.067
same,glycan array binding signal (z-score),[20],-0.038
same,glycan array binding signal (z-score),GalNAc(b1-3)GalNAc,-0.32
same,glycan array binding signal (z-score),GalNAc(b1-4)Gal(b1-4)Glc,-0.343
same,glycan array binding signal (z-score),GalNAc(b1-4)GlcNAc,-0.203
same,glycan array binding signal (z-score),[21],-0.174
